ChEMBL document CHEMBL4888484, “Replenishing the malaria drug discovery pipeline: Screening and hit evaluation of the MMV Hit Generation Library 1 (HGL1) against asexual blood stage Plasmodium falciparum ,using a nano luciferase reporter read-out” (2022)
In all, about 150,000 compounds went through this assay and about 540 (0.36%) showed an effect of 50% or more. Some of the results follow.

The compounds below were run on Plasmodium falciparum (assay: Primary screen in NF54 nanoGlo assay, in single point, at 2uM, 72h; a lower Z score goes with more inhibition). Conditions: timepoint 72 hour.
Type: functional, Erythrocyte
`CCOc1ccc(CNC(=O)c2ccc(Oc3ncc(-c4ccc(C)cc4)cn3)cc2)cc1OCC` was tested, and the “% Inhibition” value was -10% and the Z score was 1.81.
In the case of `COC(=O)c1ccc(CN2CC3(C)CC2CC(C)(C)C3)cc1` (stereo not drawn), the “% Inhibition” value is reported as -6% and the Z score is reported as 0.89.
`CC(C)Nc1ncc(CN(C)Cc2ncon2)cn1` was tested, and the “% Inhibition” value was -15% and the Z score was 2.32.
In the case of `Cc1cc(C)c(N2CC[C@H](NC(=O)c3ccoc3)C2=O)c(C)c1`, the “% Inhibition” value is reported as -12% and the Z score is reported as 1.09.
In the case of `CC(C)Cc1ccc(-c2n[nH]c(C(=O)N(C)C)n2)cc1`, the “% Inhibition” value is reported as -13% and the Z score is reported as 2.28.
In the case of `Cc1cccnc1CNS(=O)(=O)c1cccc(C(=O)N[C@H]2CCOC2)c1`, the “% Inhibition” value is reported as -2% and the Z score is reported as 0.28.
With `Cc1nc(CNCC(C)(C)c2ccc3ccccc3c2)[nH]c1C` the “% Inhibition” value was -3% and the Z score was 0.33.
In the case of `Cc1ccc(-c2nnc(-c3cccnc3N3CCOCC3)o2)cc1`, the “% Inhibition” value is reported as -16% and the Z score is reported as 1.55.
In the case of `O=C(Nc1cccc(C(F)(F)F)c1)c1cccnc1-c1cccs1`, the “% Inhibition” value is reported as 0% and the Z score is reported as -0.05.
In the case of `CC(C)c1cncnc1N1CCC2(CCC(=O)N(Cc3cccnc3)C2)CC1`, the “% Inhibition” value is reported as -6% and the Z score is reported as 0.55.
In the case of `Oc1cc(OCc2ccc(Cl)c(Cl)c2)ccc1-c1[nH]ncc1Oc1ccccc1Br`, the “% Inhibition” value is reported as -6% and the Z score is reported as 0.54.
With `CC(O)CC(C)CNC(C)c1ccc(Cl)cc1` (stereo not drawn) the “% Inhibition” value was 7% and the Z score was -1.04.
In the case of `CC(=O)NC1CN(CC2C(C)=CCCC2C)C1` (stereo not drawn), the “% Inhibition” value is reported as -13% and the Z score is reported as 1.97.
For `Cc1cnccc1CNC(=O)NC1CCCC(C)CC1` (stereo not drawn), the “% Inhibition” value was 0% and the Z score was -0.02.
In the case of `CCN1CCN(C[C@@H]2CN(c3ncnc4ccsc34)C[C@@H]2CO)CC1`, the “% Inhibition” value is reported as 2% and the Z score is reported as -0.35.
For `NS(=O)(=O)N1CC[C@H](Oc2ccc(C(F)(F)F)cn2)C1`, the “% Inhibition” value was -8% and the Z score was 1.11.
For `O=C1CN(C(=O)c2cccc3c2OCO3)c2ncccc2N1`, the “% Inhibition” value was 4% and the Z score was -0.83.
`COCCOc1ccc(CN[C@@H](C(=O)OC(C)(C)C)c2ccccc2)cc1` was tested, and the “% Inhibition” value was -11% and the Z score was 1.4.
In the case of `O=C(NC1(c2csc(N3CCOCC3)n2)CCCC1)C(F)(F)F`, the “% Inhibition” value is reported as -11% and the Z score is reported as 0.94.
`CCOc1ccc(CNC(=O)c2ccc(Oc3ccnc(-c4cccc(F)c4)n3)cc2)cc1OCC` was tested, and the “% Inhibition” value was 2% and the Z score was -0.34.
`CO[C@H]1CC[C@@]2(OC)CCN(C(=O)c3ccc(-c4ccccc4)cc3)[C@H]2C1` was tested, and the “% Inhibition” value was -10% and the Z score was 1.76.
With `O=C(COc1ccc2ccccc2c1)Nc1ccc(-n2cnnn2)cc1` the “% Inhibition” value was -7% and the Z score was 0.85.
`COc1cc(-c2nc(-c3ccc(-c4ccccc4)cc3)c(-c3ccccc3)[nH]2)ccc1OCc1ccccc1` was tested, and the “% Inhibition” value was 12% and the Z score was -1.95.
For `CC[C@]1(C)NC(=O)N(CCCNc2ccncc2Cl)C1=O`, the “% Inhibition” value was 1% and the Z score was -0.17.
`CCCNCc1cc(OCC)c(OCC#N)cc1Br` was tested, and the “% Inhibition” value was -4% and the Z score was 0.53.
With `O=C(Nc1ccc2c(c1)OCO2)C1CCN(C(=O)c2cc(Cl)c3c(c2)OCCCO3)CC1` the “% Inhibition” value was -38% and the Z score was 4.46.
With `CCn1nnc2ccc(-c3noc(-c4ccc(C)cc4)n3)cc21` the “% Inhibition” value was -19% and the Z score was 3.27.
`CCn1nc(C)cc1C(=O)N[C@H](c1ccncc1)C1CC1` was tested, and the “% Inhibition” value was 2% and the Z score was -0.34.
With `CC(CNC(=O)C1CCNC(=O)C1)c1cccc(C(F)(F)F)c1` (stereo not drawn) the “% Inhibition” value was -15% and the Z score was 2.17.
For `Cc1ccc(NC(=O)Nc2ccc(F)c(-c3nnc(-c4ccccc4)o3)c2)cc1`, the “% Inhibition” value was 14% and the Z score was -1.93.
With `CNC(=O)[C@@H]1C[C@@H](n2cc(C(C)(C)NC(=O)c3cc(F)ccc3C)nn2)CN1` the “% Inhibition” value was -7% and the Z score was 0.9.
`CCc1ccc(C(C)NC(=O)C(C)N2CCC(OCCN3CCCC3)CC2)cc1` (stereo not drawn) was tested, and the “% Inhibition” value was 12% and the Z score was -1.48.
In the case of `O=C(c1cccc2c1CCC2)N(CCO)CCN1CCOCC1`, the “% Inhibition” value is reported as -19% and the Z score is reported as 2.05.
`N#Cc1c(N)nc2c(c1-c1ccccc1OC(F)F)CNCC2` was tested, and the “% Inhibition” value was -9% and the Z score was 1.56.
In the case of `O=C1C[C@H](c2ccc(OCc3ccc(F)cc3)cc2)c2sccc2N1`, the “% Inhibition” value is reported as -11% and the Z score is reported as 1.36.
For `Cc1ccc(S(=O)(=O)NCc2nc(-c3cccc(C#N)c3)c[nH]2)c(C)c1`, the “% Inhibition” value was -2% and the Z score was 0.31.
With `Cc1cnc(CN2C[C@H]3CCC[C@@H](C2)N(C)C3=O)cn1` the “% Inhibition” value was -6% and the Z score was 0.82.
For `COC(=O)c1ccccc1N(C)S(=O)(=O)c1ccc2c(c1)CCCC2`, the “% Inhibition” value was 2% and the Z score was -0.27.
For `CC[C@H](C)n1cc(C(=O)NCc2ccco2)c(=O)c(C(=O)N2CCc3ccccc3C2)c1`, the “% Inhibition” value was 5% and the Z score was -0.95.
`COc1ncc(-c2nc(-c3cccc(F)c3)no2)c(C)n1` was tested, and the “% Inhibition” value was -15% and the Z score was 1.68.
For `O=C(Nc1n[nH]c(CCc2c[nH]c3ccccc23)n1)c1cccs1`, the “% Inhibition” value was -9% and the Z score was 1.67.
With `O=C(c1ncc[nH]1)N1CC[C@H]2[C@H](CCC(=O)N2CCc2ccccc2)C1` the “% Inhibition” value was -5% and the Z score was 0.5.
In the case of `Cc1ccc(S(=O)(=O)N2CCC[C@H](CCC(=O)N3CCN(C)CC3)C2)cc1`, the “% Inhibition” value is reported as -11% and the Z score is reported as 1.59.
In the case of `NC(=O)COc1ccc(S(=O)(=O)N2C3CCC2CC(n2cccn2)C3)cc1` (stereo not drawn), the “% Inhibition” value is reported as -18% and the Z score is reported as 2.34.
For `CCN(CC)S(=O)(=O)c1ccc(C(N)=O)cc1`, the “% Inhibition” value was -8% and the Z score was 1.09.
For `O=S1(=O)CCN(CCNc2nc(C3CCCCC3)ns2)CC1`, the “% Inhibition” value was 30% and the Z score was -3.35.
In the case of `COc1cc(-n2cnnn2)c(Cl)cc1C(=O)N1CC[C@H](NC(C)=O)C1`, the “% Inhibition” value is reported as 3% and the Z score is reported as -0.37.
`Cc1cc(CNC(=O)C(C)(C)C)ccc1F` was tested, and the “% Inhibition” value was -5% and the Z score was 0.66.
With `O=c1c2cc3c(nc2ncn1Cc1ccc(F)cc1)CCCC3` the “% Inhibition” value was -10% and the Z score was 1.25.
For `CN(Cc1ccccc1)Cc1cn([C@H]2CO[C@H]3[C@@H]2OC[C@@H]3NC(=O)Nc2ccc(Oc3ccccc3)cc2)nn1`, the “% Inhibition” value was 14% and the Z score was -1.64.
In the case of `CC1(C)CNC(=O)CN1C(=O)[C@H]1C[C@@H]1c1ccc(Cl)cc1`, the “% Inhibition” value is reported as 6% and the Z score is reported as -1.37.
For `FC(F)(F)CCN(Cc1cnc2cnccn12)C1CCC1`, the “% Inhibition” value was -11% and the Z score was 1.5.
For `O=C(NCCCN1CCCC1=O)Nc1ccn(-c2nccs2)n1`, the “% Inhibition” value was -2% and the Z score was 0.23.
In the case of `Cc1noc(C)c1Cc1nc(C2(c3ccccc3)CC2)nn1CCCO`, the “% Inhibition” value is reported as 7% and the Z score is reported as -0.91.
In the case of `Cn1cc(CN2Cc3[nH]c4ccccc4c3C[C@H]2C(=O)O)cn1`, the “% Inhibition” value is reported as 3% and the Z score is reported as -0.24.
With `CCc1ccccc1NC(=O)C1CCN(c2ncnc3oc(C)c(C)c23)CC1` the “% Inhibition” value was 8% and the Z score was -0.8.
In the case of `O=C1N[C@@]2(CCCCc3ccccc32)C(=O)N1Cc1cccc(C(F)(F)F)c1`, the “% Inhibition” value is reported as 4% and the Z score is reported as -0.84.
With `CN1CC[C@@H](c2nc(-c3ccc(OC(F)F)cn3)no2)S1(=O)=O` the “% Inhibition” value was -15% and the Z score was 2.77.
For `O=C(NC[C@@H](c1ccco1)N1CCCC1)c1cncc(Br)c1`, the “% Inhibition” value was -8% and the Z score was 0.9.
In the case of `C[C@H](NS(C)(=O)=O)c1cccc(Cl)c1`, the “% Inhibition” value is reported as -3% and the Z score is reported as 0.37.
In the case of `OCC[C@]1(NCc2sccc2Cl)CCOC1`, the “% Inhibition” value is reported as -9% and the Z score is reported as 1.2.
In the case of `Cc1cnc(CCNC(=O)C2CCC2)n1CC1CC1`, the “% Inhibition” value is reported as -15% and the Z score is reported as 1.67.
For `Cc1cc(N2CCC(NC(=O)[C@]3(C)CCCN3C(=O)c3ccccc3)CC2)[nH]n1`, the “% Inhibition” value was -5% and the Z score was 0.9.
In the case of `CCN(CC(=O)Nc1ccc2c(c1)OCCO2)C(=O)c1ccc(C)s1`, the “% Inhibition” value is reported as -3% and the Z score is reported as 0.62.
For `CCCN1CCC(N2CCN(c3nc4c(C)cccc4cc3CO)CC2)CC1`, the “% Inhibition” value was -7% and the Z score was 1.38.
In the case of `CCN(C(=O)c1cccc(-c2nc(OC)cc(OC)n2)c1)C1CCOCC1`, the “% Inhibition” value is reported as -11% and the Z score is reported as 2.07.
`Cc1ccc(S(=O)(=O)NC(=O)c2cccc(-c3noc(C4CC4)n3)c2)cn1` was tested, and the “% Inhibition” value was -19% and the Z score was 2.8.
`Cc1nc(C#N)c(C#N)n1Cc1nc(-c2ccco2)no1` was tested, and the “% Inhibition” value was 6% and the Z score was -0.83.
In the case of `CCCc1sc(C(=O)Nc2nnn[nH]2)cc1CC`, the “% Inhibition” value is reported as 7% and the Z score is reported as -1.3.
`c1cc(-c2nc(-c3ccc4nncn4c3)no2)cs1` was tested, and the “% Inhibition” value was -15% and the Z score was 2.49.
`Cc1noc2nc(-c3ccccc3)cc(C(=O)N[C@H](c3ccc(Cl)cc3)c3nccn3C)c12` was tested, and the “% Inhibition” value was 19% and the Z score was -2.36.
For `Cc1ccc(CCN(C[C@H]2CCCO2)c2ccc3nnnn3n2)cc1`, the “% Inhibition” value was -10% and the Z score was 1.29.
For `O=C(Nc1ccccc1)c1c([O-])n(-c2ccccc2)n[n+]1CCN1CCCCC1`, the “% Inhibition” value was 2% and the Z score was -0.33.
For `Cc1cc(NC(=O)c2cnc(OC3CCOCC3)c(Cl)c2)no1`, the “% Inhibition” value was -5% and the Z score was 1.02.
For `O=C(Nc1ccccc1F)c1nnc(COc2ccc(C(=O)N3CCCCCC3)cc2)s1`, the “% Inhibition” value was -34% and the Z score was 3.09.
`Cc1ncc(C(=O)NCCc2cscn2)c(O)c1Br` was tested, and the “% Inhibition” value was -13% and the Z score was 1.28.
`CN(C(=O)c1ccc(N2CCCCS2(=O)=O)cc1)C1CCCCC1O` (stereo not drawn) was tested, and the “% Inhibition” value was -10% and the Z score was 1.76.
`Cn1ccnc1CN1CCOC[C@H](Oc2ccc(S(C)(=O)=O)cc2)C1` was tested, and the “% Inhibition” value was -12% and the Z score was 1.91.
In the case of `Cc1nnc2c3ccc(Cl)cc3nc(N3CCC(Cc4ccccc4)CC3)n12`, the “% Inhibition” value is reported as -4% and the Z score is reported as 0.68.
In the case of `C#CCCCCC(=O)Nc1ncccc1Cl`, the “% Inhibition” value is reported as 30% and the Z score is reported as -0.86.
With `CC(=O)Nc1ccc(S(=O)(=O)N[C@H]2CO[C@H]3[C@@H]2OC[C@H]3OC(=O)Nc2ccccc2)cc1` the “% Inhibition” value was 26% and the Z score was -3.04.
For `CCCc1cc(-c2nc([C@H]3CCOC3)no2)cs1`, the “% Inhibition” value was -17% and the Z score was 2.17.
`Nc1nnc(N[C@H]2CCc3ccccc32)[nH]1` was tested, and the “% Inhibition” value was -11% and the Z score was 1.35.
For `Cc1cc(=O)n(CC(=O)N(C)c2cccc(Cl)c2)c(Nc2cccc(F)c2)n1`, the “% Inhibition” value was -11% and the Z score was 1.58.
